# The other results are listed elsewhere or left out.
# Target: T1, OsWOX13 (Oryza sativa, UniProt Q5QMM3 1-267)
# T1 sequence: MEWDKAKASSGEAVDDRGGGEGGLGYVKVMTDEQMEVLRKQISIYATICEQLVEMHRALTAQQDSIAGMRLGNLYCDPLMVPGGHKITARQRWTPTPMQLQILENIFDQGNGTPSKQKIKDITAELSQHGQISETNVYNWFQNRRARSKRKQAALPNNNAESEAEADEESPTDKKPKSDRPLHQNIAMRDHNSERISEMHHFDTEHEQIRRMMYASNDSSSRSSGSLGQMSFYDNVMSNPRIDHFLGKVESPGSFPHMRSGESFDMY
# Test: protein-binding microarray (RPBM); PBS, 2% BSA, 51.3 ng/ul salmon testes DNA, 50 uM zinc acetate, 200 nM TF, 25 C, 1 h; high values mean tight binding
# Conditions: protein: recombinant; tags: N-terminal polyhistidine and DsRed monomer fusion (pET32a); label: CyDye5-dUTP incorporated in the synthesized complementary strand; 3' TTTTT single-stranded linker to array surface; dsDNA, one strand shown
# Summary of the method: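 Transcription factors, each fused N-terminally to a polyhistidine tag and DsRed, were expressed in E. coli BL21-CodonPlus and purified on Ni–NTA. A custom Agilent array was made double-stranded by primer extension with Cy5-dUTP and blocked with 2% BSA. It was incubated with 200 nM protein in PBS, 2% BSA, salmon testes DNA and 50 µM zinc acetate at 25 °C for 1 h, then washed. The binding signal is per-feature fluorescence intensity (arbitrary units) read on an Axon 4000B scanner.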
row,Sequence,binding signal
1,GAACTGACATGTGACGATTGACCAACACTGGCACAGGGACCGGAGTCACCTAGTGCAG,6820 fluorescence intensity (a.u.)
2,TTCATAATTTTCACTTTAAAATACATAGTTTTACACATGTCGGAGTCACCTAGTGCAG,8300 fluorescence intensity (a.u.)
3,ATTATTGTAACTAAATTTTGAACATATGATTTCTGCACGGCGGAGTCACCTAGTGCAG,8450 fluorescence intensity (a.u.)
4,TCTAGATTTGACTAAATTAAGTAGTTGTTTAACTAGTATACGGAGTCACCTAGTGCAG,14000 fluorescence intensity (a.u.)
5,CGCACTAATGGAAATTAAGGAGGTAGCCAAGCCGATCCCACGGAGTCACCTAGTGCAG,22300 fluorescence intensity (a.u.)
6,TGGAGGAGAGTAAATGAGCAATCAGGCCCACGGCCCAATCCGGAGTCACCTAGTGCAG,3370 fluorescence intensity (a.u.)
7,TACTCCAAGGTGCAGGCGTCGCTGGTGCAGAGCCTCGGCGCGGAGTCACCTAGTGCAG,7060 fluorescence intensity (a.u.)
8,AATTAATCATGCAATAAAACAAATTTCGTTTTGCGTGCTACGGAGTCACCTAGTGCAG,6310 fluorescence intensity (a.u.)
9,CCATGATTGATCGAAAGTAAACGGAGAGGCCACATGCATGCGGAGTCACCTAGTGCAG,50100 fluorescence intensity (a.u.)
10,AACAATTGATTAGTACAAAATGGTACTTCCTCCGTTTCACCGGAGTCACCTAGTGCAG,56600 fluorescence intensity (a.u.)
11,GATAGTGGATTGATTGTCCATCCACATTGATGTCGAATCTCGGAGTCACCTAGTGCAG,39300 fluorescence intensity (a.u.)
12,TTCCACCATGTTTCAATCATTAGGGAAATCCGTGTACGCTCGGAGTCACCTAGTGCAG,7870 fluorescence intensity (a.u.)
13,ACACTCTGATTTGTGCAGAGATGTTTATATCCATGCTGATCGGAGTCACCTAGTGCAG,10800 fluorescence intensity (a.u.)
14,TTTTAATTTTCTGTACTCTCGTCGGCCAACGCAGCCAGTTCGGAGTCACCTAGTGCAG,4450 fluorescence intensity (a.u.)
15,TCTGATCGACGGTCCCGATTGATCCGTACCTGTACAGAAGCGGAGTCACCTAGTGCAG,4650 fluorescence intensity (a.u.)
16,ATATGATTAATAAAATAAACTTATTTCGAGATAAATAGGACGGAGTCACCTAGTGCAG,30400 fluorescence intensity (a.u.)
17,GGGAGCAATTTAGTCTGTATAATAAAATTATTATTATGAGCGGAGTCACCTAGTGCAG,5930 fluorescence intensity (a.u.)
18,TAACGGGCAAGTAATTTAATTATTACCATCTCTCACAGCCCGGAGTCACCTAGTGCAG,10100 fluorescence intensity (a.u.)
19,CTATGATTATTAGTCAAAAGCTACCAAGTTTGATTTTCCTCGGAGTCACCTAGTGCAG,30900 fluorescence intensity (a.u.)
20,TTGGCTATTAGATTGATTTAAAGCTAGTAGTGGGCTGTACCGGAGTCACCTAGTGCAG,27800 fluorescence intensity (a.u.)
21,GGCGACTCATGAAATTGATTCCATCGCGCTCGTTGATAGGCGGAGTCACCTAGTGCAG,6120 fluorescence intensity (a.u.)

row,Sequence,binding signal
1,TTGATGGACATGAATGAATGGAACATGAGAAAGTCGTATTCGGAGTCACCTAGTGCAG,19300 fluorescence intensity (a.u.)
2,AATCTTGATTTGTCTACAGATAATCTCTCACACCTTATCTCGGAGTCACCTAGTGCAG,17200 fluorescence intensity (a.u.)
3,ATTGACAGCGATAGTCGCACGGGTTCTTGCTTATTTGGATCGGAGTCACCTAGTGCAG,12400 fluorescence intensity (a.u.)
4,ATATATTGTTAATGATTATAATAGATGACCTGAACTGAGACGGAGTCACCTAGTGCAG,19600 fluorescence intensity (a.u.)
5,GGGTTGATTTTGCTTCCTGCATCCCAGCGACATCGCCCAACGGAGTCACCTAGTGCAG,3960 fluorescence intensity (a.u.)
6,CTGGATTGGTGATTGATTATCCGAGCAAGCAAAGACGATGCGGAGTCACCTAGTGCAG,63800 fluorescence intensity (a.u.)
7,CTTAATTAGGCTCAAATAATTCGTCTCGTGGTTTCCAATCCGGAGTCACCTAGTGCAG,21700 fluorescence intensity (a.u.)
8,TAGCAAATTATATTTCTTTAATTAATAACATGGAAATAGACGGAGTCACCTAGTGCAG,13300 fluorescence intensity (a.u.)
9,CTATGCATTTAATTAATTAGGAGAAAACTCCATATTACACCGGAGTCACCTAGTGCAG,23300 fluorescence intensity (a.u.)
10,TGTCAATCAACGAAAGCTCAAGGCGGTTTCTTCTCCGGTGCGGAGTCACCTAGTGCAG,33000 fluorescence intensity (a.u.)
11,TCTTTTAATTTTGAAAATTAAGCGTTTCAGATGGTTGAGACGGAGTCACCTAGTGCAG,6920 fluorescence intensity (a.u.)
12,ATATACATTTAATTCTATTTGATTTTCTGTTTCACATCTTCGGAGTCACCTAGTGCAG,7400 fluorescence intensity (a.u.)
13,CTCGTCCAAATTTGATTTTGCAAACTATAGGGTAGATGATCGGAGTCACCTAGTGCAG,8770 fluorescence intensity (a.u.)
14,GAGGCACTGATTGTAGACAGGTGAAAGTTAAAAGCGAGAGCGGAGTCACCTAGTGCAG,9400 fluorescence intensity (a.u.)
15,GGGTAATTTCTGGGATAGGTTTATCAGAATTGCAAAATTGCGGAGTCACCTAGTGCAG,7430 fluorescence intensity (a.u.)
16,ATGATTTATTATGTTCTGCCCTTCTTTGTTGTGACAAAGTCGGAGTCACCTAGTGCAG,4960 fluorescence intensity (a.u.)
17,TTGACTGGGTGACAATAGACGGGCAAATCGTTGGTGCCTGCGGAGTCACCTAGTGCAG,9780 fluorescence intensity (a.u.)
18,TTATTGTGCATTTAATTGGTTAACTACAACAGTGTGCCGACGGAGTCACCTAGTGCAG,11200 fluorescence intensity (a.u.)
19,ACACAAACAGACTGGAAATTAGAGACTATTAAGTGTGGCGCGGAGTCACCTAGTGCAG,29100 fluorescence intensity (a.u.)
20,ACTAGATAGTAATTGTATAGTATATTTTATTGGTAACTATCGGAGTCACCTAGTGCAG,8420 fluorescence intensity (a.u.)
21,TCCTACTAATTTGGAAAAGGAAAATTGGAATCCGTCTCATCGGAGTCACCTAGTGCAG,12800 fluorescence intensity (a.u.)

row,Sequence,binding signal
1,TGAATCAAATGATAGGAAAATAATTAATAATTCCTTAAATCGGAGTCACCTAGTGCAG,5570 fluorescence intensity (a.u.)
2,TTGTCATCAAATTTTGATCAAACTATTTATTGATCTTTTACGGAGTCACCTAGTGCAG,3570 fluorescence intensity (a.u.)
3,CCCACAGCCAATTACACGATTTTGGGGTGTCCTGTAGCAACGGAGTCACCTAGTGCAG,3580 fluorescence intensity (a.u.)
4,TATTGTAATTATAATATATTTACAATACAATTACATTATGCGGAGTCACCTAGTGCAG,19300 fluorescence intensity (a.u.)
5,GAAATAGATTAATTATAGCTAAAACATTTTCTCGACCTTGCGGAGTCACCTAGTGCAG,52800 fluorescence intensity (a.u.)
6,ACATATAAGTTACAGTGTAATTACACTATAATTGTACTATCGGAGTCACCTAGTGCAG,8520 fluorescence intensity (a.u.)
7,TCAATGTCTTGACAGATTTAGAACACTTACAAAGTTACTGCGGAGTCACCTAGTGCAG,3620 fluorescence intensity (a.u.)
8,ACAAAACTACAAATTTAACAATAAACTTATCACAAAACTACGGAGTCACCTAGTGCAG,3930 fluorescence intensity (a.u.)
9,TTCTTGACAACCTGCAAACAAAGCAATTAGCAAGGTGCAGCGGAGTCACCTAGTGCAG,3240 fluorescence intensity (a.u.)
10,TTCAATCAATTTAAGAAGTAGACGCTACCTTATAAGACAACGGAGTCACCTAGTGCAG,18600 fluorescence intensity (a.u.)
11,TCTCTGGGAATTTTGATTGTTGGAATTGTGCATTTTGTGGCGGAGTCACCTAGTGCAG,4890 fluorescence intensity (a.u.)
12,TTCCGATTGAGGAATGTTATTCACACAAGCGCAGGAGATGCGGAGTCACCTAGTGCAG,4130 fluorescence intensity (a.u.)
13,ACAGCGCTAATTACTTTTGGATCATGACGCCAAGTTGGTCCGGAGTCACCTAGTGCAG,11300 fluorescence intensity (a.u.)
14,CAAATAATTTACTGATAGTCACCTTCATGGCAGATAAAATCGGAGTCACCTAGTGCAG,5020 fluorescence intensity (a.u.)
15,CCAAATAATTGCGTTAAGGCTGGCCTGGAGGAGGACGTGCCGGAGTCACCTAGTGCAG,14100 fluorescence intensity (a.u.)
16,CTTCTGATTTCTTTTAGAGATATTAAATGTTAAGATCATTCGGAGTCACCTAGTGCAG,6040 fluorescence intensity (a.u.)
17,TATTGGTGATTAGGGATGTTATACAGATTCAAGTACTCGACGGAGTCACCTAGTGCAG,17400 fluorescence intensity (a.u.)
18,GCCCCTTAATGGACGCATCCTGCACGACGACGGACGCAGGCGGAGTCACCTAGTGCAG,4270 fluorescence intensity (a.u.)
19,AATCTAAATTACTATTTAGCGGTTCGGGAAGCATGTCATACGGAGTCACCTAGTGCAG,7140 fluorescence intensity (a.u.)
20,AATCTAATAGATGAAAATAGTGGGCTACCGATTTATTAGACGGAGTCACCTAGTGCAG,4000 fluorescence intensity (a.u.)
21,TTAGTTAAATTATGTTAAAATTTTAAATAATTTTGGTCTACGGAGTCACCTAGTGCAG,27400 fluorescence intensity (a.u.)

row,Sequence,binding signal
1,GAAGCCATTTATAAACTAAATTAGTAGGTAACCCTTGAATCGGAGTCACCTAGTGCAG,7220 fluorescence intensity (a.u.)
2,GACTGATCAACAGCAATAATCACTCTGTTATTATTTGGTGCGGAGTCACCTAGTGCAG,3340 fluorescence intensity (a.u.)
3,AATAAACAAATTTTGGCACAATCTATTACTAAGAATCTGGCGGAGTCACCTAGTGCAG,4510 fluorescence intensity (a.u.)
4,ATAAATTTTAAATGCTACAAACCATTGTATCTTGGAACTGCGGAGTCACCTAGTGCAG,6120 fluorescence intensity (a.u.)
5,GATAAAAGTTAAATTTAAAATTACATTTATCTTGGGATGGCGGAGTCACCTAGTGCAG,9270 fluorescence intensity (a.u.)
6,AATACTTGCAAATTAGCTAACTAGTTCTCCTAATTGAGCCCGGAGTCACCTAGTGCAG,9350 fluorescence intensity (a.u.)
7,ATGACAGTCTAACTCTTGAGATTAATTCTTGATATTTCAGCGGAGTCACCTAGTGCAG,4850 fluorescence intensity (a.u.)
8,TTTTATAATTAATCTATATTTAATACTCTAAATTAGTGTCCGGAGTCACCTAGTGCAG,10900 fluorescence intensity (a.u.)
9,GTCTCGTCAACCTAATTAACCGCGTGGTTAGCAGGTTAGGCGGAGTCACCTAGTGCAG,11500 fluorescence intensity (a.u.)
10,GGGTAATTTCACATAACAAGCTTTGTGGCATGCTATACAGCGGAGTCACCTAGTGCAG,8370 fluorescence intensity (a.u.)
11,CTGATTCAAATTTGAATTTGAATTCAAATATTTTCTATATCGGAGTCACCTAGTGCAG,3990 fluorescence intensity (a.u.)
12,TTTGCTTGATTGATCAATCAAACAGTAAATTAATCATCAACGGAGTCACCTAGTGCAG,48000 fluorescence intensity (a.u.)
13,CTCTAATTAAGACTAATTGGAGAGGCCTCTCCAAATAGATCGGAGTCACCTAGTGCAG,14600 fluorescence intensity (a.u.)
14,TTTATTATGATAGACAATTAATGTTTCAAAATAATTAGATCGGAGTCACCTAGTGCAG,21500 fluorescence intensity (a.u.)
15,TGTAAATGGATCAGATAGTGATACAATAAATTTTAGCCCACGGAGTCACCTAGTGCAG,4910 fluorescence intensity (a.u.)
16,TTCCGGTTCCTGATTGCTTGCTCCACCGATTGACCGATCGCGGAGTCACCTAGTGCAG,18100 fluorescence intensity (a.u.)
17,ATGTTTTAGAAAATAAATTAGCAATCAAAGTTGCATGTTGCGGAGTCACCTAGTGCAG,7470 fluorescence intensity (a.u.)
18,TTAATTGACTTGTTCAGTTGTTCACAAGTTCACGCTGCCGCGGAGTCACCTAGTGCAG,28800 fluorescence intensity (a.u.)
19,GTTAATGGAGGTATGGAAATTTGTGACACGTCTCCAAATGCGGAGTCACCTAGTGCAG,5550 fluorescence intensity (a.u.)
20,ACAGATGATCAATACTAGAATTAACTCGCCAAATTGAGGTCGGAGTCACCTAGTGCAG,3940 fluorescence intensity (a.u.)
21,AAAATTTCTGTTGATTGCGTCGAAACCTTCGCAATCCTCTCGGAGTCACCTAGTGCAG,27800 fluorescence intensity (a.u.)
